In all, about 51,000 compounds went through this assay and about 600 (1.2%) were called active. The inconclusive results got no clear call from the source; some entries with a clear call stand among them for comparison. No stated cut-off is given here; in the data, active means potency below about 11 µM; inconclusive means mostly about 12 µM to 25 µM; inactive means weaker than that;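 the screen sought inhibitors and activators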. No potency is given beside an inconclusive call; the fits are too rough.
What follows are molecules tested on pyruvate kinase (Bacillus stearothermophilus) (assay: Pyruvate Kinase). Settings: purified pyruvate kinase, luminescence ATP production; ribose 5-phosphate activator present at AC10.
In short: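 The screen detects both inhibitors and activators of the partially purified enzyme, run at intermediate activity with PEP at Km, ADP below Km and ribose 5-phosphate at AC10. ATP output is quantified by luciferase luminescence after a 2 h room-temperature reaction.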
For Nc1nc(-c2nc3ccccc3[nH]2)cs1, the Potency was inconclusive [decreasing]. In the case of COc1cc(OC)cc(C(=O)N2CCN(C(=O)COc3ccc4ccccc4c3)CC2)c1, the Potency is reported as inconclusive [decreasing]. For COc1ccc2[nH]c(=O)c(CN(C(=O)c3ccncc3)C(C)C)cc2c1, the Potency was inactive: > 57 µM. For O=C(Nc1ccc(N2CCN(Cc3ccccc3)CC2)cc1)c1ncn[nH]1, the Potency was inactive: > 57 µM. With COc1cc(C(C)=O)ccc1OCC(=O)c1cc(C)n(C2CC2)c1C the Potency was inactive: > 57 µM. For Nc1nonc1C(=O)NCCN=Cc1cc(Cc2ccccc2)cc(Br)c1O, the Potency was inconclusive [increasing]. Cc1ccc(NC(=O)N2C(=O)C3(OCCO3)c3ccccc32)cc1 was tested, and the Potency was inactive: > 57 µM. In the case of CCC(C)[C@@H](NC(=O)OC(C)(C)C)c1nnc(S(=O)(=O)Cc2cccc(C)c2)o1 (some centres undefined), the Potency is reported as inactive: > 57 µM. Cc1ccc(S(=O)(=O)N2CCC(C(=O)NCCN3CCCCCC3)CC2)cc1 was tested, and the Potency was inconclusive [increasing]. Cn1c(=O)c(C(=O)CN2CCCc3ccccc32)c(N)n(Cc2ccccc2)c1=O was tested, and the Potency was inactive: > 57 µM. In the case of CCOc1nc(-c2ccncc2)nc2ccccc12, the Potency is reported as inconclusive [decreasing]. In the case of CCn1c(=S)sc2nc(C)sc21, the Potency is reported as inactive: > 57 µM. For COc1ccc(-c2cn3ccsc3n2)cc1, the Potency was active: 4.01 µM. In the case of CCOC(=O)c1[nH]cnc1C(=O)Nc1ccncc1, the Potency is reported as inconclusive [decreasing]. In the case of CS(=O)(=O)NC1c2cccc3cccc(c23)C1Sc1nncn1/N=C/c1ccco1 (centres undefined), the Potency is reported as inconclusive [increasing]. With COc1ccc(CCNC(=O)c2nnc(Cc3c(F)cccc3Cl)o2)cc1OC the Potency was inconclusive [increasing]. With CC(C(=O)NCC1CCCO1)N(C(=O)c1snc(C(N)=O)c1N)c1cccc(F)c1 (centres undefined) the Potency was inactive: > 57 µM. In the case of COC(=O)c1c(C)oc2ccc(NS(=O)(=O)c3cc(OC)ccc3OC)cc12, the Potency is reported as inactive: > 57 µM. With CC(=O)Nc1ccc(-c2cn3ccsc3n2)cc1 the Potency was inconclusive [decreasing]. CCOc1ccccc1C(=O)Nc1ccccc1C(N)=O was tested, and the Potency was inactive: > 57 µM. For O=C(CN1C(=O)c2ccccc2C1=O)OCC(=O)N1CCc2ccccc2C1, the Potency was inconclusive [increasing]. In the case of COc1ccccc1CNC(=O)CC(NS(=O)(=O)c1ccc(C)cc1)c1ccco1 (centres undefined), the Potency is reported as inconclusive [increasing]. For CCOC(=O)Cc1csc(NC(=O)c2csc3c2CCCC3)n1, the Potency was “inactive”. For CCC(=O)Oc1ccc(-c2nc(-c3cccnc3)no2)cc1, the Potency was inconclusive [decreasing]. With O=C(NC1CC1)c1ccc(-c2nc3ccccc3s2)s1 the Potency was active: 0.799 µM. In the case of Cc1cc(-c2ccccc2)c2c3c(cn2n1)c(=O)n(C)c(=O)n3C, the Potency is reported as inactive: > 57 µM. In the case of COc1ccc(OC)c2[nH]c(=O)c(CCNC(=O)c3ccc(Br)o3)cc12, the Potency is reported as inconclusive [decreasing]. With CCCCOc1[nH]c2nc(-c3ccco3)n(Cc3ccco3)c(=N)c2c1C#N the Potency was active: 10.9 µM. For O=C(O)c1cccc(COc2ccccc2Cl)c1, the Potency was active: 6.74 µM. For O=C(c1cc(-c2ccc(Cl)cc2Cl)on1)N1CCOCC1, the Potency was active: 6.29 µM. In the case of O=C(NCCCn1ccnc1)C1c2ccccc2Oc2ccccc21, the Potency is reported as inactive: > 57 µM. In the case of CS/C(=N\S(=O)(=O)c1cccs1)Nc1ccc(N2CCOCC2)cc1, the Potency is reported as inconclusive [decreasing]. With O=C(COC(=O)c1ccco1)Nc1ccc2c(c1)OCCO2 the Potency was inconclusive [decreasing]. CCCCOc1ccc(-c2nnc(-c3ccncc3)o2)cc1 was tested, and the Potency was active: 5.57 µM. COc1ccccc1C(CCN(Cc1cccs1)C(C)=O)c1ccco1 (centres undefined) was tested, and the Potency was inactive: > 57 µM. In the case of CCOc1ccc(-c2nnc(N(CC)C(=O)C3CCC3)s2)cc1, the Potency is reported as inconclusive [decreasing]. For Cc1cc(=O)n2[nH]c(-c3ccc(Cl)cc3)cc2n1, the Potency was inconclusive [decreasing]. In the case of COc1cc(NC(=O)C2CCN(S(=O)(=O)c3cccc4nonc34)CC2)cc(OC)c1, the Potency is reported as inconclusive [increasing]. Cc1cccc(NC(=O)C2CCN(S(=O)(=O)c3cccc4nsnc34)CC2)n1 was tested, and the Potency was inconclusive [increasing]. With Cc1ncsc1C(=O)Nc1nc2c(s1)CC(C)CC2 (centres undefined) the Potency was active: 10.3 µM. For Cc1nc(CNS(=O)(=O)c2cc(C)c(C)cc2C)cs1, the Potency was inconclusive [increasing]. Oc1ccc(Nc2nc(-c3ccc(O)cc3)cs2)cc1 was tested, and the Potency was active: 7.96 µM. COc1cccc(CNc2cccc3cccnc23)c1O was tested, and the Potency was inconclusive [increasing]. With O=C(Nc1cccnc1)c1cc(-c2cccs2)on1 the Potency was inactive: > 57 µM. In the case of COC(=O)c1ccc(CSc2nc3c(c(=O)n2-c2ccc(Br)cc2)SCC3)o1, the Potency is reported as inactive: > 57 µM. With Cc1ccc2[nH]c(-c3cccc(N)c3)cc2c1 the Potency was inconclusive [decreasing]. O=c1c2ccccc2nc2c3ccccc3c3nncn3n12 was tested, and the Potency was active: 0.899 µM. In the case of Cc1cc(C)c(C)c(S(=O)(=O)NCc2ccco2)c1C, the Potency is reported as active: 10.6 µM. In the case of COc1cccc(C2=NO[C@@H]3C(=O)N(c4ccc5c(c4)OCCO5)C(=O)[C@H]23)c1OC, the Potency is reported as inconclusive [increasing]. With O=C(Nc1ccc(NC(=O)C23CC4CC(CC(C4)C2)C3)cn1)c1ccco1 the Potency was inactive: > 57 µM. In the case of CS(=O)(=O)c1ccc2nc(NC(=O)c3cccs3)sc2c1, the Potency is reported as active: 2.21 µM. With Brc1ccc(-c2cnc3n2CCCC3)cc1 the Potency was inconclusive [decreasing]. For Cc1ccc(C(=O)Nc2ncc(Cc3ccccc3)s2)o1, the Potency was inconclusive [decreasing]. In the case of CCn1c(=O)cc(SCC(=O)N2CCN(C3CCCCC3)CC2)c2ccccc21, the Potency is reported as inactive: > 57 µM.
Potency means the concentration at half of the fitted maximal effect.
